Measured values as given in publication PMC4336329 (PLoS ONE, 2015).
In all, about 310,000 compounds went through this assay and about 2,200 (0.71%) showed an effect of 50% or more. Effects have a minus sign here. This is one part of the list.

What follows are compounds tested against human ether-à-go-go-related gene (hERG) potassium channel (human, UniProt Q12809) (assay: primary screen, population patch clamp on CHO cells stably expressing hERG).
human ether-à-go-go-related gene (hERG) potassium channel, sequence (Q12809 whole entry, looked up): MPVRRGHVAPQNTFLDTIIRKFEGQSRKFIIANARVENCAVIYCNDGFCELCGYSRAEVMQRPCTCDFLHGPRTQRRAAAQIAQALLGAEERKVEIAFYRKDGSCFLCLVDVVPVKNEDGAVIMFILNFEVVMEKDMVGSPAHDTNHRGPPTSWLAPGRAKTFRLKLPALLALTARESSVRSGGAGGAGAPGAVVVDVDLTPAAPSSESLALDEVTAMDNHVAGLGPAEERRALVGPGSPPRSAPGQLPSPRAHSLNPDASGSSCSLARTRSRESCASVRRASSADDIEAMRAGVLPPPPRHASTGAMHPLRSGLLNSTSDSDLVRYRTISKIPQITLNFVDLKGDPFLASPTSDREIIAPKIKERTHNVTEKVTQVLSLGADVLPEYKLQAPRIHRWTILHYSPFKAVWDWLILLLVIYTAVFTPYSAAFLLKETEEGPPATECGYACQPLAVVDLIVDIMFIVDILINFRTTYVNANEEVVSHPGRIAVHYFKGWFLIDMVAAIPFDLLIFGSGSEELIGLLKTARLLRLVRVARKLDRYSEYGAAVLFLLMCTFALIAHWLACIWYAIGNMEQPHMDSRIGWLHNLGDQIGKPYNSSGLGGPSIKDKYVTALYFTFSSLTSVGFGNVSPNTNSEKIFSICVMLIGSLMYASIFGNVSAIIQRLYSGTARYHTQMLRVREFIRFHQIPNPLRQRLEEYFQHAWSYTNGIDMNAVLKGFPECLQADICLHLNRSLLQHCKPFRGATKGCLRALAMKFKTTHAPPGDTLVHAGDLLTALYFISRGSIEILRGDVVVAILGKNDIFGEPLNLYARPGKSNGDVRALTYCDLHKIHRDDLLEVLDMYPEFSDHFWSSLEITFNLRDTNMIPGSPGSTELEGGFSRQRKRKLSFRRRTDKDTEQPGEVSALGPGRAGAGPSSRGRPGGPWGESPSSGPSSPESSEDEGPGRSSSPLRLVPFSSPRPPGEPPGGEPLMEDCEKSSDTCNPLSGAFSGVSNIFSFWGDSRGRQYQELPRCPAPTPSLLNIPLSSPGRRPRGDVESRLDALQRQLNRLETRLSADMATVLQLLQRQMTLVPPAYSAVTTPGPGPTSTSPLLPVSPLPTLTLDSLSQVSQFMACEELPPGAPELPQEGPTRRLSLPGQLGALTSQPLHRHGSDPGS

Compound	hERG current change (%, negative = inhibition) at 1uM [%]
Cn1c(=O)c(C(=O)CN2CCN(Cc3ccc4c(c3)OCO4)CC2)c(N)n(Cc2ccccc2)c1=O	-40.4
CC(=O)NC(CCCNC(=S)NC1CCCCC1)C(=O)O (stereo not shown)	22.9
Cc1cccc(N2CCN(S(=O)(=O)c3c(C)nc4scc(C)n4c3=O)CC2C)c1 (stereo not shown)	3.87
C=CCn1c(C)cc(C(=O)COC(=O)C2CC(=O)N(Cc3ccccc3)C2)c1C (stereo not shown)	2.72
Br.Cc1cc(C)cc(Nc2nc(-c3ccc(S(=O)(=O)N4CCCC4)cc3)cs2)c1	5.11
CCOC(=O)N1CCN(C(=O)CCNS(=O)(=O)c2ccc(C)c(C)c2)CC1	11.2
O=C(NCc1ccccc1)C(Cc1ccccc1)N1C(=O)C2C3CCC(C3)C2C1=O (stereo not shown)	-1.98
Nc1cc(OC(=O)c2cccs2)nn1S(=O)(=O)c1ccccc1	15.7
CC(C)Cc1cc(C(=O)NCCCN2CCOCC2)no1	4.89
Cc1ccc(C(=O)OCC(=O)Nc2cc(S(=O)(=O)N3CCOCC3)ccc2C)cc1	9.8
Cc1c(C(=O)Nn2cnnc2)oc2ccccc12	0.596
CCN(CC)CCNC(=O)CCn1c(=S)[nH]c2cc3c(cc2c1=O)OCO3	-0.984
O=C(COC(=O)/C=C/c1ccc(F)cc1)NCc1cccs1	8.87
CSCCCN1CCCC(CO)(Cc2ccc(F)cc2)C1 (stereo not shown)	4.98
C=CCSc1nc(N(CC)CC)c2sccc2n1	4.73
O=C(c1cccc(S(=O)(=O)N2CCOCC2)c1)N(Cc1ccc(F)cc1)Cc1ccco1	-55.2
CCCCCn1c(=O)c(C(=O)Nc2c(C)n(C)n(-c3ccccc3)c2=O)c(O)c2ccccc21	7.48
CN(C)CCNC(=O)c1onc(CSc2nc3ccccc3[nH]2)c1C(=O)NCCN(C)C	-2.06
CCCCC(=O)NC(=S)Nc1cc(C(=O)O)ccc1Cl	18.8
Cc1ccsc1CNC1CCCCC1	13
O=C1CCCc2c1cc(C(=O)NCc1ccco1)c(=O)n2-c1ccc(Cl)cc1	-19.8
Cc1noc(C)c1COc1ccccc1C(=O)NC1CCC(C)CC1 (stereo not shown)	10.3

Compound	hERG current change (%, negative = inhibition) at 1uM [%]
O=C(Nc1ccc2oc(-c3ccccc3)nc2c1)c1cccs1	7.22
COc1ccc(C(=O)Cc2ccc3c(c2)OCO3)c(O)c1	1.76
Cc1c(NC(=O)Nc2ccc(Cl)c(Cl)c2)c(=O)n(-c2ccccc2)n1C	9.59
COc1ccc(-c2cc3c(=O)n(CC(=O)NCc4cccnc4)nc(C)n3n2)cc1	19.3
C[N+](C)(C)CCOC(=O)CCC(=O)OCC[N+](C)(C)C.O.[Cl-]	8.28
CCOc1ccc(/C=N/NC(=O)c2ccccc2C)cc1CN1CC2CC(C1)c1cccc(=O)n1C2 (stereo not shown)	-1.03
CCCOc1ccc(/C(O)=C2/C(=O)C(=O)N(c3ccccn3)C2c2ccc(OC)cc2)cc1C (stereo not shown)	14
Cc1ccc(NC(=O)c2cnc(SCC(=O)c3ccccc3)n(C)c2=O)cc1	17
O=C(O)c1ccccc1C(=O)N1N=C(c2ccccc2)CC1c1ccccc1O (stereo not shown)	11.4
Cc1cc2nccc(-c3cccnc3)n2n1	9.97
CCC/C=N/NC(=O)c1cccc(Br)c1	10.3
COc1ccc(Cl)cc1S(=O)(=O)Nc1ncn[nH]1	6.5
O=S(=O)(NCCc1csc(-c2ccccc2)n1)c1cccnc1	12.4
CC(=O)NNc1cccc(Cl)n1	4.36
CC1(C)CC(=O)c2cc(OCC(=O)NCCCN3CCN(c4ccc(F)cc4)CC3)ccc2O1	-60.3
Cc1ccccc1NC(=O)Nc1ccccc1Br	13
CC1CCN(C(=O)c2ccc(NC(=O)c3cccs3)cc2)CC1	11.2
O=C(NCCc1ccccc1)C1COc2ccccc2O1 (stereo not shown)	15.2
Cc1ccc(NS(=O)(=O)c2ccc(C(=O)NCc3ccccn3)cc2)cc1	16.4
COc1ccc(Cl)cc1NC(=O)NC1CCCCC1	9.6
CCOC(=O)C1=C(c2ccccc2)NC(=O)NC1c1cccc(OC)c1OC (stereo not shown)	11.1
CC(=O)c1cc(-c2ccccc2)n(CCC(=O)NC2CCCCCC2)c1C	-1.38

Compound	hERG current change (%, negative = inhibition) at 1uM [%]
C=CCOC(=O)C1=C(C)OC(N)=C(C#N)C1c1ccc(F)cc1 (stereo not shown)	5.22
CCC(=O)NC(=S)Nc1ccc(NC(=O)c2ccc([N+](=O)[O-])cc2Cl)cc1	4.72
COc1ccc(N(C)S(=O)(=O)c2cccc(C(=O)Nc3nc4ccccc4[nH]3)c2)cc1	12.9
COc1ccc(OC)c(S(=O)(=O)N2CCC(C(=O)NC3CCCCC3)CC2)c1	7.94
COc1ccc(-c2noc(CCC(=O)NCCCN3CCC(Cc4ccccc4)CC3)n2)cc1	-84.9
Cc1cccc(NC(=O)c2cc(NC(=O)C3CC=CCC3C(=O)O)ccc2N2CCOCC2)c1 (stereo not shown)	6.86
CC(=O)N/C(=N/c1nc(C)cc(C)n1)Nc1ccc(NC(C)=O)cc1	12.1
CCCNC(=O)NC(=O)COC(=O)c1cccc(NS(=O)(=O)c2ccc(F)c(F)c2)c1	6.01
O=C(c1cc(-c2ccc(Cl)cc2)n(-c2ccc(Cl)c(Cl)c2)n1)N1CCOCC1	5.69
Cc1cc(C(=O)N2CCC(C(N)=O)CC2)c(C)o1	7.56
O=S(=O)(c1cnccc1N1CCN(/N=C/c2ccc(Cl)cc2)CC1)N1CCCCC1	7.98
Fc1ccc(/C=N\Nc2cccc(F)c2)cc1	7.8
O=C(CSc1ccc(F)cc1)Nc1ccc(N2CCOCC2)cc1	-5.65
O=C1CCCc2c1[nH]c1c(Br)cccc21	-0.123
CCC1(c2ccccc2)NC(=O)N(CC(=O)NNC(=O)COc2ccc(Cl)cc2C)C1=O (stereo not shown)	6.59
O=C(COC(=O)C12CC3CC(CC(C3)C1)C2)Nc1nccs1	20.8
CCN(C(=S)Nc1ccc(OC(F)F)cc1)C1CCCCC1	-1.82
Cc1cccc(NC(=O)N2CCN(Cc3ccccc3)CC2)c1	13.3
O=C(c1ccc(NS(=O)(=O)c2cccc(F)c2)cc1)N1CCCC1	3.36
Cc1cc([N+](=O)[O-])nn1CCCC(=O)Nc1cc(Cl)ccc1Cl	-3.37
COC(=O)NCC(C)OC(=O)Nc1cccc(Cl)c1 (stereo not shown)	4.62
COC(=O)CSc1[nH]c2ccc(Br)cc2c1[N+](=O)[O-]	16

Compound	hERG current change (%, negative = inhibition) at 1uM [%]
CCOC(=O)CSc1cc(C)c(C#N)c2nc3ccccc3n12	2.01
CCNS(=O)(=O)c1ccc(CCC(=O)Nc2ccccc2C(=O)OC)cc1	6.24
COc1ccc(OC)c(N(CC(=O)NCC2CCCO2)S(=O)(=O)c2ccccc2)c1 (stereo not shown)	8.63
O=C(COC(=O)c1cc(-c2ccncc2)nc2ccccc12)Nc1ccc2c(c1)OCO2	9.37
O=C(COC(=O)c1nc(Cl)ccc1Cl)NCc1ccc(Cl)cc1	10.4
COc1ccc(NC(=O)C2CCN(C(=O)c3ccccc3)CC2)c(OC)c1	6.42
CCOC(=O)c1ccc(NC(=O)c2nc[nH]c2C(=O)N[C@H](C)c2ccccc2)cc1	14.7
COc1ccc(-n2c(CN3CCN(c4ccccn4)CC3)nc3ccc([N+](=O)[O-])cc3c2=O)c(OC)c1	-6.09
Cc1onc(-c2c(F)cccc2Cl)c1C(=O)Nc1cccc(S(=O)(=O)NCc2ccco2)c1	8.33
Cc1cccc(NC(=O)c2cccc(NS(=O)(=O)c3ccc(Cl)cc3)c2)c1	11.8
CCCCN(CCCC)CC(O)CN(c1cc([N+](=O)[O-])ccc1OC)S(=O)(=O)c1ccccc1 (stereo not shown)	-27.9
Cc1ccsc1/C=N/NC(=O)c1ccc2ccccc2c1	24.1
O=C1C2C3C=CC(C3)C2C(=O)N1c1cccc2cccnc12 (stereo not shown)	2.08
CC1=C(C(=O)OCC(Br)(Br)Br)C(c2cccc([N+](=O)[O-])c2)NC(=O)N1CCCC(=O)O (stereo not shown)	7.23
COc1cc2nc(CC(C)C)n(NC(=O)c3ccccc3Br)c(=O)c2cc1OC	13.7
CC(C)NC(=O)c1onc(CSc2nc3ccccc3[nH]2)c1C(=O)NC(C)C	6
CCn1c(SCC(=O)N2CCCCC2C)nnc1-c1ccco1 (stereo not shown)	4.3
COc1ccc(NC(=O)O/N=C/c2ccccc2)cc1	14.8
CC(C)c1c(O)nc(SCC(=O)N2CCCCC2)[nH]c1=O	4.87
Cc1ccccc1S(=O)(=O)/N=C(/c1ccccc1)N(C)C	7.96
O=[N+]([O-])c1ccc2nc(-c3ccccc3)oc2c1	4.95
CC1CN(CCCSc2ccc(Cl)cc2)CC(C)O1.O=C(O)C(=O)O (stereo not shown)	-5.42
